The RNAGym collection of RNA variant scans (doi:10.7554/elife.90254)
The source gives no read counts; variants with many changes may rest on few reads.

B1: OR4K15 (parent)
chain: GUUAACGGUCAUAGGCCAUGGAAACUAGGAGCACCAUUUCGCUGCCAGUGAAGAAAUGAACAAAGAAAAUCUGGGCCAGGCAGGCAUCAAAAGAAAUAGUCUUGCGCUCAACCAGAAAGUCUGUAAUCAUUUUAAGGGUA

Variants of: B1
Experiment: self-cleavage, relative activity (ratio to wild type); higher = more cleavage; in vitro, sequencing; the parent is a self-cleaving ribozyme

| Variant | self-cleavage |
| --- | --- |
| U2G A22G A60G | 0.59 |
| U2G A24G U39A U49A | 0.88 |
| U2G A24G U39C A89G | 0.24 |
| U2G A47G U49G G84U A95G | 0.27 |
| U2G A51U A59G U70C A91G A110G | 0.12 |
| U2G A56G U70C A90G | 0.44 |
| U2G A62U U87C A95G U103C G106C | 0.02 |
| U2G G7U A23G U43A A60G A68G | 1.11 |
| U2G G14A U19A A27G U57C | 0.57 |
| U2G U9A U49C A59G A67G A117G | 1.07 |
| U2G U19A U43C U130C | 0.27 |
| U2G U26C A60G G74U | 0 |
| U2G U38C G123A A126U | 0.7 |
| U2G U57C U70C | 1.21 |
| U2G U87C U132G | 0.81 |
| U2G U100C U130C | 0.78 |
| U3A A4U C35U A135G | 0.17 |
| U3A A5G A33U A51G | 0.52 |
| U3A A5G A54G U70C | 0.85 |
| U3A A5G U37C | 1.02 |
| U3A A5G U57C | 0.58 |
| U3A A5G U132C | 0.95 |
| U3A A11G U19C A64G | 1.05 |
| U3A A11G U37C C85G | 0.1 |

| Variant | self-cleavage |
| --- | --- |
| U3A A13U A23G A64G | 0.99 |
| U3A A13U A62G A114G | 0.24 |
| U3A A22G C46U A67U A134G | 1.42 |
| U3A A23G A63U | 0.16 |
| U3A A23U U39A | 1.31 |
| U3A A27G A125G | 0.34 |
| U3A A30U A63G A82G A117U U131C | 0.07 |
| U3A A33U U37C A52G A64G | 1.42 |
| U3A A47G U49A A64G A82G | 0.62 |
| U3A A51G A66G A95G | 1.21 |
| U3A A59G A126G | 0.59 |
| U3A A60U G138A | 1.51 |
| U3A A63G A110G | 0.2 |
| U3A A82U U100G | 0.24 |
| U3A A94G A95G A118G | 1.04 |
| U3A C17A U70C | 0.72 |
| U3A C35U A91G A92U | 0.83 |
| U3A C76U A91G U100C U120C U122C | 0.04 |
| U3A G20A U97C | 1.14 |
| U3A U19C A47C U70C A96G U139C | 0.8 |
| U3A U19C A117G | 1.08 |
| U3A U19C G41A A62C | 0.33 |
| U3A U37C A60U U120C | 0.58 |
| U3A U39C A62G A69G U108C | 0.05 |

| Variant | self-cleavage |
| --- | --- |
| U3A U57A U100C A116G | 0.84 |
| U3A U70C G104A | 0.03 |
| U3A U72A G99A | 0.1 |
| U3A U72C A91U | 0.19 |
| U3A U72C A134G | 0.52 |
| U3C A4G A91G U139C | 0.68 |
| U3C A5G A24G | 0.92 |
| U3C A5G A92G A117G | 1.2 |
| U3C A5U A51U A67G U70C A92G G136A | 1.12 |
| U3C A5U U38C A69U A95G | 1.91 |
| U3C A11C C42U U127C | 1.71 |
| U3C A11G A64G | 0.31 |
| U3C A13G A125U U133C U139G | 0.28 |
| U3C A18U A47G U57C | 0.95 |
| U3C A18U A67U A86U U127C | 0.79 |
| U3C A18U U72C U122C | 0.09 |
| U3C A22G A96G A114G | 0.93 |
| U3C A22G G73A A89U U124A | 0.03 |
| U3C A22G U49C A64G G83A U87C | 1.57 |
| U3C A23G U37C A125G U131C | 1.02 |
| U3C A23G U38A U70C A89U | 0.42 |
| U3C A23U A68G | 1.05 |
| U3C A24G A55U G79A | 0.16 |
| U3C A24G A56G C85G | 0.43 |

| Variant | self-cleavage |
| --- | --- |
| U3C A24U A30G A140U | 0.81 |
| U3C A27G A33G A51G A90G C107G | 0.04 |
| U3C A27G A116U | 0.17 |
| U3C A27G G29C A98G | 0.69 |
| U3C A30G A60G A89U | 1.13 |
| U3C A36C U39A | 1.02 |
| U3C A36G U38C U72C | 0.66 |
| U3C A36U A59U | 1.77 |
| U3C A47G A55G U131C G137A | 0.75 |
| U3C A47U A54G | 0.93 |
| U3C A51G A62G | 0.5 |
| U3C A51G A67G | 0.98 |
| U3C A51G U102A A116U | 0.23 |
| U3C A52G A114G | 0.67 |
| U3C A52U U100A | 0.86 |
| U3C A55G G80A A96G A116G | 0.02 |
| U3C A56G A67U | 0.84 |
| U3C A63G A117G | 1.02 |
| U3C A63G U72A U133C | 0.48 |
| U3C A89C U127C | 0.79 |
| U3C A89G U108C | 0 |
| U3C A94U A114G | 0.78 |
| U3C A96G G104A | 0.05 |
| U3C A110G A111G | 0.02 |

| Variant | self-cleavage |
| --- | --- |
| U3C A111G U127A U132C U139C | 0.01 |
| U3C C10G A59G | 0.87 |
| U3C C16U A27U U72C | 0.19 |
| U3C G8A G14A A82G U100C A111G | 0.01 |
| U3C G29A U57A A89G A96U | 0.84 |
| U3C G44A A96G U108C A114G | 0.01 |
| U3C G106A C109U A126G | 0 |
| U3C U9A A47U U133A | 0.25 |
| U3C U9A A67G G75C U103C | 0.02 |
| U3C U9A C76U A98G | 0.08 |
| U3C U9C A52G | 0.7 |
| U3C U9C U49C A82G U102C U132C | 0.85 |
| U3C U12A U102A U103C | 0.05 |
| U3C U12C U97C U103C U122C | 0.25 |
| U3C U37C A90G A91G A114G | 0.37 |
| U3C U38C A47U U102C | 1.33 |
| U3C U38C A59G A60G A94G | 0.97 |
| U3C U38C G53A | 0.9 |
| U3C U39A A116U U120C C121A | 0.4 |
| U3C U39C A78U A91G A118U | 0.05 |
| U3C U39C A116G | 1.12 |
| U3C U43C A86G | 1.2 |
| U3C U103C A116U | 0.02 |
| U3C U103C U122C | 0.69 |

| Variant | self-cleavage |
| --- | --- |
| U3C U124A U131C | 0.3 |
| U3G A13G A22U A55G | 1 |
| U3G A51G U127A | 1.76 |
| U3G A78G C105U A111G | 0.03 |
| U3G A78G C121U U131C U132C | 0.15 |
| U3G U26C A116G U132C | 0.59 |
| U3G U26C U108C U120C A129G U130C | 0.01 |
| A4C A11G A30G U39C U57C | 1.13 |
| A4C A36U A86C A135G | 0.91 |
| A4C U26A A92G | 0.49 |
| A4C U103C A126C | 0.58 |
| A4G A5C U19G U127C | 0.55 |
| A4G A5G A23G A24G U39A | 1.27 |
| A4G A5G A47U | 2.22 |
| A4G A5G A51G A52U U131C | 1.17 |
| A4G A5G U49C A52G | 0.92 |
| A4G A5U A66G A82G A96U A117G | 0.44 |
| A4G A5U U37A A47U A90G | 0.83 |
| A4G A5U U37C A54G A86U | 0.9 |
| A4G A5U U132C | 0.41 |
| A4G A11G A22U A30U U124C | 0.85 |
| A4G A11G A36G A82G | 0.72 |
| A4G A11G A78C A92U | 0.3 |
| A4G A11G A125G | 0.12 |

| Variant | self-cleavage |
| --- | --- |
| A4G A18U U43C | 1.62 |
| A4G A22G A82C A110G | 0.14 |
| A4G A23G A62G U133C | 0.55 |
| A4G A23G A78C | 0.5 |
| A4G A23G A94G | 0.94 |
| A4G A23G U26C A117G A118G | 0.7 |
| A4G A23G U37C | 1.84 |
| A4G A24C A30G A116U A117G | 0.53 |
| A4G A24G A47G A54G U103C | 0.66 |
| A4G A24G A60G | 1.8 |
| A4G A24G A140U | 1.12 |
| A4G A24G U37C A47U A51G U57C A126G | 0.49 |
| A4G A24G U108C A116U | 0.04 |
| A4G A24U A51U A92G U130C | 1.2 |
| A4G A24U U38A C40U U43C A55U A86G | 0.75 |
| A4G A33C U39C A67C A89U U108C A110G | 0.06 |
| A4G A33G A52G A92G U108C | 0.01 |
| A4G A33G A56G A67G U87C | 0.42 |
| A4G A51G U122C | 1.32 |
| A4G A51U A82U A98G G115A | 0.03 |
| A4G A52C A69G | 0.49 |
| A4G A52G A56G A82G U102C | 0.64 |
| A4G A52G A56U U108C | 0.05 |
